Laboratory results taken from PubChem BioAssay AID488969 (Vanderbilt High Throughput Screening Facility, 2010).
Whole data set: some 110,000 compounds, median “z-score” near -0.1, cut for the highest 2% near 2. Some of the results follow.

The compounds below were run against Metabotropic glutamate receptor 8 (Rattus norvegicus) (UniProt P70579) (assay: mGluR8 Gi/Go-coupled signaling modulation – cell-based, rat, thallium flux, HTS, primary screen (AID 488969)). Conditions: HEK293 rat mGluR8, GIRK (G protein-gated inwardly rectifying potassium channel) thallium flux, FluoZin2; at 10 µM; stronger effect = higher value; submaximal glutamate (EC20) added with thallium.
Sequence of UniProt P70579 (P70579 whole entry, looked up): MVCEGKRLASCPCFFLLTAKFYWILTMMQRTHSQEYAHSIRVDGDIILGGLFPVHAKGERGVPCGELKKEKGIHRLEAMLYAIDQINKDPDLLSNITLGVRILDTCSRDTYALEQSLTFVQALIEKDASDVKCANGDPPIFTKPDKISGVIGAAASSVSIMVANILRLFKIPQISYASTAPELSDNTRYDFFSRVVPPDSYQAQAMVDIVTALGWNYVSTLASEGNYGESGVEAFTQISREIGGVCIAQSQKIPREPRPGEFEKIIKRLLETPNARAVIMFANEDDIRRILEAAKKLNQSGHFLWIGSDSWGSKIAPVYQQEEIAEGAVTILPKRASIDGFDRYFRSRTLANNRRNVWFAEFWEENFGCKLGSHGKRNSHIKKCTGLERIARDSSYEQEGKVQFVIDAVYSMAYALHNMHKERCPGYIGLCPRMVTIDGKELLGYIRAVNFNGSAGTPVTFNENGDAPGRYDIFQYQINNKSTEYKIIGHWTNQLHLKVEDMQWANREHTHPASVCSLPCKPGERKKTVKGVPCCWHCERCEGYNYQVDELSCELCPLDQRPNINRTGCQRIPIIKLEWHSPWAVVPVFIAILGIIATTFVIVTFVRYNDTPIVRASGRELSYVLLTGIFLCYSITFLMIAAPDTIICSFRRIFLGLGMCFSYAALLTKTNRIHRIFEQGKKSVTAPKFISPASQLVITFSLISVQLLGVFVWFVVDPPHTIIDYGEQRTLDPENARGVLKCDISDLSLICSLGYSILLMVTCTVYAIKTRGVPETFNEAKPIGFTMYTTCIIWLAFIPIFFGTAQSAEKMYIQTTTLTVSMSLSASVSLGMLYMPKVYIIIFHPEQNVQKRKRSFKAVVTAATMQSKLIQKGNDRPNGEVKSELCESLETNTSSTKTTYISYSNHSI

| SMILES | z-score |
| --- | --- |
| CC(=O)NC(NC(C)=O)c1ccc(Br)cc1 | -0.126 |
| COc1ccc(C(=O)Nc2nc(C)c(C)s2)cc1OC | -0.276 |
| O=[N+]([O-])c1cc(C(F)(F)F)ccc1N1CCN(S(=O)(=O)c2ccc3c(c2)CCCC3)CC1 | 0.0262 |
| Cc1cc(NC(=O)c2ccccc2Cl)no1 | -0.157 |
| Cc1ccc(NC(=O)C2CCN(S(=O)(=O)c3c(C)[nH]c(=O)[nH]c3=O)CC2)cc1 | 0.143 |
| CC1CCCN(C(=O)CSCC(=O)Nc2nc(-c3cccs3)cs2)C1 (centres undefined) | 0.503 |
| O=C(Nc1c2ccccc2nc2ccccc12)C(Cl)(Cl)Cl | 0.00142 |
| Cc1ccc(S(=O)(=O)N2CCN(C(C)C(=O)Nc3ccccc3-c3ccccc3)CC2)cc1 (centres undefined) | -0.164 |
| CCOC(=O)CSc1nc2cc(S(=O)(=O)Nc3ccccc3OC)ccc2o1 | -1.72 |
| Cc1ccc(SCCC(=O)NC(C(C)C)C(C)C)cc1 | -0.0763 |
| CCOC(=O)Cc1nnc(NC(=O)C(CC)Sc2nc(C)cc(C)n2)s1 (centres undefined) | -0.0328 |
| Cc1ccc(S(=O)(=O)N(CC(O)CN2C(=O)NC(C)(C)C2=O)c2ccccc2)cc1 (centres undefined) | 0.077 |
| Cc1nc2ccc(S(=O)(=O)c3ccc4nc(C)[nH]c4c3)cc2[nH]1 | -0.229 |
| O=C(O)CN1C(=O)SC(Nc2ccccc2)C1=O (centres undefined) | 0.0986 |
| COc1ccc(C2NC(=O)NC(c3ccccc3)=C2c2nc3ccccc3s2)cc1 (centres undefined) | -1.01 |
| O=C(Nc1ccccc1)N1CCN(Cc2ccccc2)CC1 | -0.0692 |
| CCCCSc1nnc(-c2ccc(C)cc2)n1C | -0.303 |
| Cn1c(=O)c2c(nc(CN3CCN(C(c4ccccc4)c4ccccc4)CC3)n2CC(N)=O)n(C)c1=O | 0.516 |
| COc1ccccc1Oc1c(C)oc2c(CN3CCN(CCO)CC3)c(O)ccc2c1=O | 0.798 |
| O=C(NC1CCCCC1)c1ccc(CS(=O)(=O)Cc2ccccc2F)o1 | 0.401 |
| CC1=C(C(=O)Nc2cccnc2)C(c2ccc(C(C)C)cc2)n2ncnc2N1 (centres undefined) | 0.375 |
| Cc1nc2ccsc2c(=O)n1-c1ccc(Cl)cc1 | -0.0701 |

| SMILES | z-score |
| --- | --- |
| CCN=C1SC(CC(=O)Nc2ccccc2)C(=O)N1CC (centres undefined) | 0.224 |
| CC(C)c1ccc(OCC(=O)Nc2ccc(OC(F)(F)F)cc2)cc1 | -0.173 |
| COC(=O)c1sccc1NC(=O)CSc1nnnn1-c1ccccc1C | 0.0457 |
| Cc1ccc(OCC(=O)N/N=C/C=C/c2ccco2)cc1 | 0.0246 |
| O=C(Nc1ccncc1)Nc1ccc(F)cc1F | 0.57 |
| O=C1C=C(NC2=CC3OC(c4ccccc4)OCC3OC2=O)CCC1 (centres undefined) | -0.2 |
| CC(C)(Oc1ccc(CCNC(=O)c2ccc(-c3ccccc3)o2)cc1)C(=O)O | -0.491 |
| CC(=O)NC(CC(=O)NC1CCCCCC1)c1ccccc1 (centres undefined) | 0.55 |
| COc1ccccc1NC(=O)NCCCN1CCN(c2cccc(Cl)c2)CC1 | -0.552 |
| O=C(CCC(=O)OC(C(=O)c1ccccc1)c1ccccc1)Nc1ccccc1 (centres undefined) | -0.106 |
| CCCn1c(NC(=O)C2CCN(S(=O)(=O)c3cccs3)CC2)nc2ccccc21 | 0.158 |
| N#Cc1ccccc1OCC(=O)OCC(=O)c1ccc2c(c1)NC(=O)CO2 | -0.0953 |
| CC1=CC2=NC(=O)CC(C)(C(=O)N(CC(=O)NC(C)(C)C)C3CCCC3)N2C=C1 (centres undefined) | 0.126 |
| CC1CC1C(=O)Nc1nc(-c2ccccc2)cs1 (centres undefined) | -0.311 |
| Cc1c(CC=C(Cl)Cl)c(=O)[nH]c2c(C)cccc12 | 0.363 |
| CCOc1ccc(-c2nn(-c3ccccc3)cc2/C=C2\SC(=S)N(C3CCS(=O)(=O)C3)C2=O)cc1 (centres undefined) | -0.352 |
| CCN(CC)S(=O)(=O)c1cc(NC(=O)COC(=O)c2sc3ccccc3c2Cl)ccc1C | -0.0136 |
| COc1ccc(-c2nc(C)ncc2-c2csc(C)n2)c(O)c1 | -0.348 |
| CCOC(=O)c1cccc(NC(=O)Cn2cnc3c2c(=O)n(C)c(=O)n3C)c1 | -0.516 |
| C=CCn1c(-c2ccc3[nH]c(C)c(C)c3c2)n[nH]c1=S | -0.461 |
| Cc1c(C(=O)Nc2ccc(N3CCOCC3)cc2)oc2ccccc12 | -0.15 |
| CCOC(=O)c1sc(NC(=O)c2cc3c(s2)CCC(C)C3)nc1C (centres undefined) | -0.0661 |

| SMILES | z-score |
| --- | --- |
| Cc1nc(N[C@@H](Cc2ccccc2)C(=O)O)c2oc3ccccc3c2n1 | -0.144 |
| COc1ccccc1N=CC1=C(O)CC(c2ccccc2)CC1=O (centres undefined) | -0.194 |
| O=C(CCSCc1ccccc1Cl)N1CCN(c2cccc(Cl)c2)CC1 | 0.0702 |
| Cc1onc(-c2c(F)cccc2Cl)c1C(=O)Nc1sc2c(c1C#N)CCC(C(C)(C)C)C2 (centres undefined) | -0.185 |
| COC(=O)C1=C(C)N(c2ccc(C)cc2)/C(=C/c2cccs2)C1=O | -0.108 |
| C/C(Cn1nc([N+](=O)[O-])cc1C)=N\NC(=O)c1cccc(Br)c1 | -0.134 |
| N#CC1=C(N)OC(c2ccccc2)=C(C#N)C1c1ccc2c(c1)OCO2 (centres undefined) | -0.0787 |
| COC(=O)c1ccccc1NC(=O)N[C@@H](C)C(=O)OC | 0.0183 |
| Cc1nnc(NC(=O)c2cccc(NC(=O)C(C)C)c2)s1 | 0.211 |
| O=C1CC(N2CCOCC2)C(=O)N1c1ccc2c(c1)OCO2 (centres undefined) | -0.00271 |
| CCc1ccc(CNn2cnnc2SCC(=O)NC(C)(C)C)cc1 | -0.032 |
| CCCOc1ccc(NC(=O)CC2C(=O)N(C)C(=S)N2Cc2cccs2)cc1 (centres undefined) | -0.253 |
| CC1=C(C(=O)OC(C)C)C(c2c(O)ccc3ccccc23)NC(=O)N1 (centres undefined) | 0.549 |
| Cc1ccc(CCNC(=O)Cn2cccc2)cc1 | 0.233 |
| CSCCC(NC(=O)c1cccc([N+](=O)[O-])c1)C(=O)O (centres undefined) | -0.182 |
| COc1ccccc1-c1cc(C(=O)N2CCCCC2)no1 | 0.227 |
| CCOc1cc(C)c(Cl)cc1S(=O)(=O)NCC1CCCO1 (centres undefined) | -1.28 |
| CC(=O)Nc1ccc(NS(=O)(=O)c2ccc3ccccc3c2)cc1 | -0.075 |
| Cc1ccc(C)c(-c2cc(C(=O)Nc3sc(C)c(C)c3C(N)=O)c3ccccc3n2)c1 | -0.16 |
| COc1ccc(C2C(C(=O)N3CCN(c4ccc(OC)cc4)CC3)c3ccccc3C(=O)N2C)cc1 (centres undefined) | 0.463 |
| CCOC(=O)CNC(=O)C(Cc1ccccc1)NS(=O)(=O)c1cccs1 (centres undefined) | 0.447 |
| CCOc1ccc(NC(=O)c2ccccc2OC)cc1 | -1.83 |

| SMILES | z-score |
| --- | --- |
| Cc1ccccc1NC(=O)CN(C)S(=O)(=O)c1cccc2cccnc12 | 0.523 |
| COc1ccc(NC(=O)COc2ccc(/C=N/n3c(C)nnc3C)cc2OC)cc1 | -0.586 |
| CN(C)S(=O)(=O)c1ccc(NC(=O)CNc2cc(S(=O)(=O)N3CCCC3)ccc2OCC(F)(F)F)cc1 | 0.0677 |
| CC1CCCCN1CCNC(=O)c1cc2c(-c3ccccc3F)nn(C)c2s1 (centres undefined) | -0.0482 |
| Cc1cccc2c1-c1sc(C(=O)Nc3nccs3)cc1CO2 | -0.00441 |
| Cc1ccc(-n2c(C)cc(C(=O)Cn3nc(C(=O)O)c4ccccc4c3=O)c2C)cc1 | -0.252 |
| Cc1nc2cc(NS(=O)(=O)c3c(C)c(C)cc(C)c3C)ccc2s1 | -0.223 |
| Cc1cccc(C)c1NC1=NC(=S)N(c2ccc(N(C)C)cc2)C1(C)C | 1.87 |
| O=C(/C=C/c1ccccc1Cl)N1CCCN(C(=O)/C=C/c2ccccc2Cl)CC1 | -0.173 |
| CCOC(=O)C1=C(C)N=c2s/c(=C/c3ccccc3)c(=O)n2C1c1ccc(OC)c(OC)c1 (centres undefined) | -0.183 |
| CC(C)CSc1ncc(-c2cccc(C(F)(F)F)c2)cn1 | -0.00497 |
| O=C(OCc1nc2ccccc2c(=O)[nH]1)c1cccs1 | -0.141 |
| Cc1ccccc1Nc1nc(N)nc(CSc2nnnn2-c2ccccc2)n1 | -0.414 |
| O=c1c2ccccc2oc2nc3n(c(=O)c12)CCCS3 | -0.498 |
| Cc1cccc(C)c1OCC(=O)N/N=C/c1ccc2c(c1)OCO2 | -0.485 |
| Cc1sc(NC(=O)c2ccco2)c(CN2CCN(c3ccc(F)cc3)CC2)c1C | -0.328 |
| COC(=O)c1cccnc1NC(=S)NNC(=O)c1ccccc1 | 0.44 |
| COc1cc(OC)cc(C(=O)N[C@H](C(=O)OCC(=O)Nc2ccc(C(N)=O)cc2)C(C)C)c1 | 0.0447 |
| O=C(O)Cc1ccc2ocnc2c1 | -0.599 |
| CC(C)(C)n1nnnc1C(c1ccccc1)N1CCc2ccccc2C1 (centres undefined) | -0.772 |
| CCc1ccc(/C=C/C(=O)c2ccc(S(=O)(=O)N(C)C)cc2)cc1 | -0.379 |
| CCOC(=O)c1c(NC(=O)CN2CCCCC2)sc2c1CCC(C=O)=C2Cl | -0.365 |

| SMILES | z-score |
| --- | --- |
| CC(C)OC(=O)c1sc2nc(-c3ccccc3)ccc2c1N | -0.167 |
| Cc1cnc(C)c(N2CCC(C(=O)NCc3cccs3)CC2)n1 | -0.234 |
| CC(=O)c1cccc(Nc2nc(-c3cccc([N+](=O)[O-])c3)cs2)c1 | 0.000867 |
| COc1ccc(OCC(=O)N/N=C2\CCc3ccccc32)cc1 | -0.274 |
| COC(=O)C(NC(=O)c1ccco1)(Nc1ccc(Br)cn1)C(F)(F)F (centres undefined) | -0.589 |
| Cc1nc(C)n(C(=O)N(c2ccccc2)c2ccccc2)n1 | 0.16 |
| Cc1cc(C)c(NC(=O)C2CSCCS2)c(C)c1 (centres undefined) | -0.163 |
| COc1ccc(/C=C2\N=C(c3c(-c4ccccc4)noc3C)OC2=O)cc1OC | -0.381 |
| COc1ccc(CNC(=O)CCSCc2cccc(Cl)c2)cc1 | 0.0558 |
| CC1=CS(=O)(=O)CC1Sc1ncn[nH]1 (centres undefined) | -0.0073 |
| CCC(=O)c1cc2c(cc1NC(=O)C(C)C)OCCO2 | -0.256 |
| Cc1noc(NS(=O)(=O)c2ccc(NC(=O)CSc3nc4ccccc4[nH]3)cc2)c1C | -0.137 |
| Cc1nn(C(C)C(=O)NCc2ccccc2)c(C)c1[N+](=O)[O-] (centres undefined) | 0.375 |
| CCCn1nc2cc(C(=O)NC3CCc4ccccc43)ccc2c1OCC (centres undefined) | -0.247 |
| O=C1C(Nc2ccccc2)=C(N2CCCCC2)C(=O)c2ccccc21 | -0.417 |
| CC1(C)OC(C)(C)/C(=C/Nc2ccc(O)cc2)C1=O | -1.24 |
| COc1cc2cc(C(c3nnnn3C3CCCC3)N(C)C3CCCCC3)c(=O)[nH]c2cc1OC (centres undefined) | 0.0453 |
| O=C1C=C(N(CCO)CCO)C2(CCCCC2)O1 | 0.224 |
| CC1CCN(C2(O)C(=O)Nc3ccc([N+](=O)[O-])cc32)CC1 (centres undefined) | -0.167 |
| Cc1ccc(C(=O)Nc2nnc(-c3ccco3)o2)cc1C | 0.973 |
| CC(Nc1nc(N2CCCC2)nc2ccccc12)c1ccccc1 (centres undefined) | 1.84 |
